Source: the RNAGym collection of RNA variant scans (doi:10.7554/elife.90254)
Read counts are not given, so values of variants with three or more changes are uncertain.

B1: LINE1-mini (parent)
chain: GGCAGAGCUCAACACAGCGUGGCAAAGUGGCUGUGGCUAGACUGCC

Variants of: B1
Assay: self-cleavage, relative activity (ratio to wild type); higher = more cleavage; in vitro, sequencing; the parent is a self-cleaving ribozyme
C8G G27U G30U U32G showed a self-cleavage of 0.02.
Variant C8A U9G A11C U38C has a self-cleavage of 0.01.
Variant C8G G22A A24G has a self-cleavage of 0.03.
For C8A G19U G33U G36U U38A, the self-cleavage was 0.17.
C8G G22C G35C U43G showed a self-cleavage of 0.02.
C8G G19C U34G G35U showed a self-cleavage of 0.01.
Variant C8G C15A G35C C45A has a self-cleavage of 0.01.
C8G C18G G40A U43C gave a self-cleavage of 0.01.
In the case of C8A G22U C23G G36C, the self-cleavage is reported as 0.19.
C8G A16U G22U U34C C37G showed a self-cleavage of 0.05.
With C8A C18G G35U the self-cleavage was 0.02.
For C8A C10G C45U, the self-cleavage was 0.
For C8G C10G C13G C18G U28C, the self-cleavage was 0.
With C8A C13A A26U U32C G33U the self-cleavage was 0.03.
In the case of C8A C15U C18U, the self-cleavage is reported as 0.25.
C8G A12U A25G G29A G30C G40C showed a self-cleavage of 0.09.
Variant C8A C13A A24C G29C C45U has a self-cleavage of 0.18.
Variant C8G U20A C23U G36U has a self-cleavage of 0.09.
C8A C10A C18U U32G gave a self-cleavage of 0.01.
C8A U28G C46U showed a self-cleavage of 0.04.
C8G G27U G29U G33C showed a self-cleavage of 0.01.
For C8U A11U A14U C15A G36A, the self-cleavage was 0.03.
Variant C8A G22A G36A A41G has a self-cleavage of 0.44.
In the case of C8G G22U C37A, the self-cleavage is reported as 0.07.
Work on C8A C15A A26G G35A G44U C46G yielded a self-cleavage of 0.04.
Variant C8G A11C U38G has a self-cleavage of 0.03.
For C8G C15G G29C, the self-cleavage was 0.16.
Variant C8A C18G A26C G36C C37A G40U has a self-cleavage of 0.19.
C8A C15U A16U G19A gave a self-cleavage of 0.73.
C8A C10U C31U showed a self-cleavage of 0.08.
C8A C37A U38A G40U showed a self-cleavage of 0.06.
With C8A U9A C13A the self-cleavage was 0.51.
Work on C8A C18G U38G U43A yielded a self-cleavage of 0.07.
With C8G C10U A26C G29C the self-cleavage was 0.01.
Variant C8U A11G G27A C31G C45A has a self-cleavage of 0.03.
In the case of C8A A16U C37G A39G, the self-cleavage is reported as 0.08.
C8G C31G U34G showed a self-cleavage of 0.11.
C8G A12G C37A G40C gave a self-cleavage of 0.01.
For C8G G22C G36C, the self-cleavage was 0.06.
Work on C8G A39G C46A yielded a self-cleavage of 0.03.
C8G U43A G44C showed a self-cleavage of 0.03.
With C8G A11C G17C G33U the self-cleavage was 0.02.
Work on C8A G17C A24U U34G yielded a self-cleavage of 0.08.
Variant C8A A16U A25U G27A has a self-cleavage of 0.15.
C8A A24U A41G gave a self-cleavage of 0.26.
For C8A C13A C18G G29U G30C C46U, the self-cleavage was 0.34.
For C8A C15U U20C G21C A24G, the self-cleavage was 0.31.
For C8A G30A U43A, the self-cleavage was 1.61.
C8A U28G U32C G36A C37A gave a self-cleavage of 0.13.
C8A G17U G36C A39U C42G gave a self-cleavage of 0.14.
In the case of C8A C31G G35A, the self-cleavage is reported as 0.36.
In the case of C8G A12U C37A, the self-cleavage is reported as 0.05.
Variant C8A C15A G29U U38C U43G has a self-cleavage of 0.
C8G C13G G36U showed a self-cleavage of 0.03.
Work on C8A C18G G40U yielded a self-cleavage of 0.06.
C8G A14C G17A U34G G36C showed a self-cleavage of 0.04.
With C8G U9A A26U the self-cleavage was 0.12.
C8A A24G U28C gave a self-cleavage of 0.09.
Work on C8G C10A C15A C31G U38C U43G yielded a self-cleavage of 0.
For C8G G21U G40C C46A, the self-cleavage was 0.04.
For C8G C18U G21U, the self-cleavage was 0.02.
For C8A C18G C37U, the self-cleavage was 0.07.
With C8A G36U U38C the self-cleavage was 0.25.
With C8G U9G G40A the self-cleavage was 0.01.
For C8G C10U C31U, the self-cleavage was 0.03.
For C8G C10A G19C G29U C31U, the self-cleavage was 0.01.
In the case of C8A G21U A24G G36U A41C C45U, the self-cleavage is reported as 0.03.
Variant C8A U28A G36A has a self-cleavage of 0.14.
For C8G G36C U38G A39U C42G, the self-cleavage was 0.07.
In the case of C8U A11U C13G G27A G29U, the self-cleavage is reported as 0.02.
With C8G U9A A25C the self-cleavage was 0.08.
C8G G17C C18A showed a self-cleavage of 0.02.
Variant C8G G19A G29U A39U has a self-cleavage of 0.06.
In the case of C8G C37U A39U G44A, the self-cleavage is reported as 0.01.
With C8A A16G G40A C45A the self-cleavage was 0.28.
In the case of C8A U34A A41C G44C, the self-cleavage is reported as 0.16.
With C8G A12U C23G G40C C46A the self-cleavage was 0.02.
In the case of C8A G17U C18A C37A G40A, the self-cleavage is reported as 0.08.
C8A C15U U34A G40U A41U gave a self-cleavage of 0.02.
Work on C8A G22C C23G C31U A41U yielded a self-cleavage of 0.16.
Variant C8G G17C G44U has a self-cleavage of 0.04.
C8G C15U U20A G21U G22C A24G G33C showed a self-cleavage of 0.03.
C8G G35A A41C showed a self-cleavage of 0.01.
For C8A A25C G44C, the self-cleavage was 0.3.
C8G C18A C37A C42G showed a self-cleavage of 0.02.
Work on C8U A11C G19U U38C yielded a self-cleavage of 0.01.
For C8A G35U U38A, the self-cleavage was 0.1.
In the case of C8G G19C G22C A39C G40C U43C, the self-cleavage is reported as 0.
For C8G G36U U38C C42U, the self-cleavage was 0.04.
In the case of C8A U20G G27U G30U C37U C45A, the self-cleavage is reported as 0.35.
Work on C8G C10A G21U C42U C46A yielded a self-cleavage of 0.01.
For C8G C13A A16G A25U U32C, the self-cleavage was 0.02.
Variant C8G G33A C46U has a self-cleavage of 0.06.
Variant C8G G22C U38G has a self-cleavage of 0.02.
C8G A14G U28C A41C showed a self-cleavage of 0.02.
Variant C8A G21A G30U U32C A39G C46A has a self-cleavage of 0.52.
C8G U9A U34C G40C showed a self-cleavage of 0.21.
For C8G U9C G36C, the self-cleavage was 0.04.
For C8A G17U A24C, the self-cleavage was 0.5.
C8A U9C G33A gave a self-cleavage of 0.03.
Variant C8G G21A U34A has a self-cleavage of 0.03.
In the case of C8A G22U U43C, the self-cleavage is reported as 0.13.
C8G A14C A26C G30C C31G showed a self-cleavage of 0.03.
For C8G C15U C37G, the self-cleavage was 0.1.
In the case of C8G A12U G30C, the self-cleavage is reported as 0.06.
With C8G G22C C23U G30U the self-cleavage was 0.07.
For C8G G17C G27C C37U, the self-cleavage was 0.01.
Variant C8A U9A C10A C42U has a self-cleavage of 0.02.
C8G C18G C46U gave a self-cleavage of 0.08.
For C8G C10G G30U, the self-cleavage was 0.04.
For C8G C10U G35C, the self-cleavage was 0.05.
Work on C8G A14G G27A yielded a self-cleavage of 0.21.
C8A C10U A11U U43G showed a self-cleavage of 0.
Variant C8A C13A G22A U32G has a self-cleavage of 0.25.
C8G G21C G22A C23G G33C gave a self-cleavage of 0.02.
C8G A12U C18U C31U gave a self-cleavage of 0.05.
Variant C8G C13U C23U U34A G40U has a self-cleavage of 0.02.
With C8A U9A C10G the self-cleavage was 0.05.
Variant C8A U38A C45G has a self-cleavage of 0.38.
Variant C8A U9G G33A G36A has a self-cleavage of 0.27.
In the case of C8G A16G U34G, the self-cleavage is reported as 0.07.
For C8G U9C A14U G33C, the self-cleavage was 0.
In the case of C8G G29C U32C U38A, the self-cleavage is reported as 0.07.
C8G U43A C45G C46A showed a self-cleavage of 0.
Work on C8A C13A G19U U20C yielded a self-cleavage of 0.5.
C8A G22C G40U showed a self-cleavage of 0.17.
C8A G19A G21U gave a self-cleavage of 0.15.
With C8G G21U U34A the self-cleavage was 0.
With C8G C23U G30A U38A the self-cleavage was 0.24.
Variant C8G A14U C23G G30A has a self-cleavage of 0.11.
For C8G U28A U34C, the self-cleavage was 0.03.
In the case of C8A U9C C45A, the self-cleavage is reported as 0.08.
Work on C8G C10U A24U A26U G30U C42A U43C yielded a self-cleavage of 0.02.
For C8G C15A C23A G44C, the self-cleavage was 0.02.
Work on C8G G22C U28A A41U C46U yielded a self-cleavage of 0.28.
For C8A U20C C31A, the self-cleavage was 0.04.
C8G G29C G35C showed a self-cleavage of 0.08.
For C8G C15U C23U, the self-cleavage was 0.36.
For C8G C15A A26U G27A U28G G33C, the self-cleavage was 0.03.
C8U A11G A12C C15A gave a self-cleavage of 0.01.
Work on C8G A26U U32C yielded a self-cleavage of 0.04.
C8G A12C C23G A25U G27A G29A showed a self-cleavage of 0.02.
With C8G U9A C13U A14C U20A the self-cleavage was 0.02.
With C8A C13G C31G the self-cleavage was 0.18.
With C8A G22A C37U C46G the self-cleavage was 0.1.
With C8G C13U G29A the self-cleavage was 0.12.
C8A C10G G35C showed a self-cleavage of 0.02.
In the case of C8G U20A G22C A41U, the self-cleavage is reported as 0.07.
C8G U9A A12U G17C showed a self-cleavage of 0.14.
In the case of C8A A24U G27A, the self-cleavage is reported as 0.29.
Work on C8G A12G U20A yielded a self-cleavage of 0.05.
For C8G G17U G27A U28A C46A, the self-cleavage was 0.05.
Variant C8A A26U C42G has a self-cleavage of 0.08.
C8A A26U C42U showed a self-cleavage of 0.16.
Variant C8A G17U U20G has a self-cleavage of 0.25.
Work on C8G A25C G27C yielded a self-cleavage of 0.03.
With C8G A12U A39G the self-cleavage was 0.13.
Work on C8A A25G C45G yielded a self-cleavage of 0.57.
With C8A U9G C23G A26G G30C the self-cleavage was 0.05.
With C8A U38G C46A the self-cleavage was 0.07.
Work on C8G A11G A12G G27C U34C yielded a self-cleavage of 0.01.
Variant C8A G19U G35U has a self-cleavage of 0.17.
In the case of C8G C15U A26G U38G, the self-cleavage is reported as 0.09.
With C8A G22A G36U C42A the self-cleavage was 0.17.
For C8A C23U G35U G44C, the self-cleavage was 0.17.
With C8A U9A A11C the self-cleavage was 0.02.
With C8G A25G G30C the self-cleavage was 0.04.
